Some of the results follow. Repeats are few or missing, and single values can be far off.
What was measured:
Assay in all cases: cell count relative to DMSO control; melanoma cells; higher = more viable cells
Settings in all cases: library dose: standard library concentration; 72 h
[1] = test system: G361
[2] = test system: IPC-298
[3] = test system: IST-MEL1
[4] = test system: LB2518-MEL
[5] = test system: LOXIMVI
[6] = test system: MEL-HO
[7] = test system: MZ2-MEL
[8] = test system: MeWo
[9] = test system: RPMI7951
[10] = test system: RVH-421
[11] = test system: SkMel28
[12] = test system: SkMel2
[13] = test system: SkMel30
[14] = test system: SkMel5
[15] = test system: UACC257
[16] = test system: UACC62
[17] = test system: WM115
[18] = test system: WM1716
[19] = test system: WM1745
[20] = test system: WM3526
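Also: cells treated in 1,536-well plates, then fixed and DAPI-stained, with nuclei counted from automated high-throughput microscope images.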

Structure (SMILES)	cell count [1] [%]	cell count [2] [%]	cell count [3] [%]	cell count [4] [%]	cell count [5] [%]	cell count [6] [%]	cell count [7] [%]	cell count [8] [%]	cell count [9] [%]	cell count [10] [%]	cell count [11] [%]	cell count [12] [%]	cell count [13] [%]	cell count [14] [%]	cell count [15] [%]	cell count [16] [%]	cell count [17] [%]	cell count [18] [%]	cell count [19] [%]	cell count [20] [%]
C[C@@H](Oc1cc(-c2cnn(C3CCNCC3)c2)cnc1N)c1c(Cl)ccc(F)c1Cl [Crizotinib] + OCCn1cc(-c2cnc3nnn(Cc4ccc5ncccc5c4)c3n2)cn1 [PF04217903] (first compound 1 µM, partner dose 5 µM)	58.1	91	78.8	63.5	74.2	82.6	82.8	60.4	62.9	55.1	59.8	71.8	66.5	65.6	72.3	79.5	37.7	57.5	33.7	75.1
CN1CCN(c2ccc3nc(-c4c(N)c5c(F)cccc5[nH]c4=O)[nH]c3c2)CC1 [Dovitinib] + OCCn1cc(-c2cnc3nnn(Cc4ccc5ncccc5c4)c3n2)cn1 [PF04217903] (first compound 0.5 µM, partner dose 5 µM)	51.6	66.1	69.5	54.1	66.1	73.8	40.7	43.4	56.2	106	45.9	47.4	83.2	57.8	75.1	85.7	62.1	59	62.3	64.2
CS(=O)(=O)CCNCc1ccc(-c2ccc3ncnc(Nc4ccc(OCc5cccc(F)c5)c(Cl)c4)c3c2)o1 [lapatinib] + CN(C)S(=O)(=O)c1ccc2c(c1)/C(=C/c1cc3c([nH]1)CCCC3)C(=O)N2 [SU6656] (first compound 4 µM, partner dose 2 µM)	20.2	62.7	69.3	79.3	77.6	74.6	70.9	71.9	28.5	73.8	71.9	90.2	76.9	43	101	57.6	45.3	53.7	55.2	57.9
C[C@@H](Oc1cc(-c2cnn(C3CCNCC3)c2)cnc1N)c1c(Cl)ccc(F)c1Cl [Crizotinib] + CN(NC(=O)CC(=O)NN(C)C(=S)c1ccccc1)C(=S)c1ccccc1 [STA4783] (first compound 1 µM, partner dose 0.03 µM)	53.4	73.7	80.6	33.1	49.2	94.2	98.9	21.4	78.5	83.2	43.8	67.2	84.5	43.9	85.8	70.7	29.8	35.8	43.9	83.8
CNC(=O)c1cc(Oc2ccc(NC(=O)Nc3ccc(Cl)c(C(F)(F)F)c3)cc2)ccn1 [sorafenib] + NCC(=O)Nc1ccc(-n2nc(C(F)(F)F)cc2-c2ccc3c(ccc4ccccc43)c2)cc1 [OSU03012] (first compound 2 µM, partner dose 5 µM)	69.2	66.7	75.1	91.3	97.5	84.2	113	74.2	86.2	82.3	32.5	48.3	46.1	64.7	72.8	90.3	104	80.9	79.6	56.1
C=CCNC1=C2C[C@@H](C)C[C@H](OC)[C@H](O)[C@@H](C)/C=C(\C)[C@H](OC(N)=O)[C@@H](OC)/C=C\C=C(/C)C(=O)NC(=CC1=O)C2=O [Tanespimycin] + OCCn1cc(-c2cnc3nnn(Cc4ccc5ncccc5c4)c3n2)cn1 [PF04217903] (first compound 0.01 µM, partner dose 5 µM)	70.8	94.5	56.1	78.3	99.6	92.7	106	59.8	24.7	69.2	79.4	83	111	66	84.6	67.3	28.8	73.5	75.9	63.6
CS(=O)(=O)CCNCc1ccc(-c2ccc3ncnc(Nc4ccc(OCc5cccc(F)c5)c(Cl)c4)c3c2)o1 [lapatinib] + Cc1ccc(NC(=O)c2cccc(N(C)C)c2)cc1NC(=O)c1ccc(O)cc1 [ZM336372] (first compound 4 µM, partner dose 10 µM)	45.2	80	68.8	74.7	82.1	62.9	47.3	69.5	25.8	69.5	51.7	74.3	87.1	59.6	85.5	60.5	82	92	54.6	71.2
C=CCNC1=C2C[C@@H](C)C[C@H](OC)[C@H](O)[C@@H](C)/C=C(\C)[C@H](OC(N)=O)[C@@H](OC)/C=C\C=C(/C)C(=O)NC(=CC1=O)C2=O [Tanespimycin] + CC1(C)NC(=O)N(c2ccc([N+](=O)[O-])c(C(F)(F)F)c2)C1=O [nilutamide] (first compound 0.01 µM, partner dose 5 µM)	66.3	92.6	53.6	72.7	107	80.9	114	69.6	23.1	109	65	98.1	97.6	82.8	93.1	63.6	27.9	82.1	61.4	73.7
C[C@@H](Oc1cc(-c2cnn(C3CCNCC3)c2)cnc1N)c1c(Cl)ccc(F)c1Cl [Crizotinib] + CO[C@H]1C[C@@H]2CC[C@@H](C)[C@@](O)(O2)C(=O)C(=O)N2CCCC[C@H]2C(=O)O[C@H]([C@H](C)C[C@@H]2CC[C@@H](OCCO)[C@H](OC)C2)CC(=O)[C@H](C)/C=C(\C)[C@@H](O)[C@@H](OC)C(=O)[C@H](C)C[C@H](C)/C=C/C=C/C=C/1C [everolimus] (first compound 1 µM, partner dose 0.1 µM)	58.7	74.6	83.2	79.2	134	73.7	89.1	63.5	90.3	80.8	39.2	79.6	69	60.1	104	70.9	54.9	69.5	88.8	70.7
C[C@@H](Oc1cc(-c2cnn(C3CCNCC3)c2)cnc1N)c1c(Cl)ccc(F)c1Cl [Crizotinib] + Nc1ccn([C@@H]2O[C@H](CO)[C@@H](O)C2(F)F)c(=O)n1 [gemcitabine] (first compound 1 µM, partner dose 0.002 µM)	39.4	57.5	41.7	58.3	129	70.2	85.3	33.7	111	75.7	62.7	86.2	87.3	91.7	106	62.8	55.4	72.2	49.4	106
C=CCNC1=C2C[C@@H](C)C[C@H](OC)[C@H](O)[C@@H](C)/C=C(\C)[C@H](OC(N)=O)[C@@H](OC)/C=C\C=C(/C)C(=O)NC(=CC1=O)C2=O [Tanespimycin] + Cn1c(Nc2ccc(C(F)(F)F)cc2)nc2cc(Oc3ccnc(-c4ncc(C(F)(F)F)[nH]4)c3)ccc21 [CHIR265] (first compound 0.01 µM, partner dose 0.4 µM)	23.6	46.6	51.7	12.2	104	67.7	35.8	65.4	11.3	36.5	31.4	48.6	69.9	35.8	83.8	61.5	11	64	30.9	43.1
C=CCNC1=C2C[C@@H](C)C[C@H](OC)[C@H](O)[C@@H](C)/C=C(\C)[C@H](OC(N)=O)[C@@H](OC)/C=C\C=C(/C)C(=O)NC(=CC1=O)C2=O [Tanespimycin] + COc1ccc(Cl)c(Nc2nc3ccccc3nc2NS(=O)(=O)c2cccc(NC(=O)C(C)(C)N)c2)c1 [XL147] (first compound 0.01 µM, partner dose 4 µM)	63.8	69.8	65.2	74.7	96.5	66.4	92.4	82.6	34.5	96.5	55.8	79.8	75.4	59.6	62.8	54.8	32.6	78.3	77.6	76.6
C[C@@H](Oc1cc(-c2cnn(C3CCNCC3)c2)cnc1N)c1c(Cl)ccc(F)c1Cl [Crizotinib] + CN1CCN(c2ccc3nc(-c4c(N)c5c(F)cccc5[nH]c4=O)[nH]c3c2)CC1 [Dovitinib] (first compound 1 µM, partner dose 0.5 µM)	66.6	67.8	75.8	53	93.1	73.8	44.3	35.2	54.8	89.3	50.8	61.3	98	59	68.2	71.7	46.3	64.7	39.5	72.9
CN1CCN(c2ccc3nc(-c4c(N)c5c(F)cccc5[nH]c4=O)[nH]c3c2)CC1 [Dovitinib] + CC(=O)c1c(C)c2cnc(Nc3ccc(N4CCNCC4)cn3)nc2n(C2CCCC2)c1=O [palbociclib] (first compound 0.5 µM, partner dose 0.2 µM)	58.4	47.3	72.7	50.3	82.7	58.8	38	44.3	62.2	72.9	31.8	51.5	43.6	55.5	70.3	71.2	45.9	35.9	54.5	48.9
CNC(=O)c1cc(Oc2ccc(NC(=O)Nc3ccc(Cl)c(C(F)(F)F)c3)cc2)ccn1 [sorafenib] + Clc1ccc(Nc2nnc(Cc3ccncc3)c3ccccc23)cc1 [vatalanib] (first compound 2 µM, partner dose 10 µM)	74.2	59.2	79.5	78.9	125	55.2	71.3	57.1	58.9	29.2	88.3	67.7	95.3	62.5	71.7	75.2	98.7	107	58.5	70.1
